# Source: PubChem BioAssay (NCATS)
# Values joined by “and” are separate entries in the source; they are usually repeats but may differ in a detail not shown here. Equal values may be shown once. This list was built around the results that the source calls inconclusive (neither active nor inactive); the mix of calls is not that of the screen. Potencies of inconclusive entries are doubtful fits and often do not repeat. For some assays here: A note “side channel” means that the fit belongs to a control or component signal, not to the main read-out. The source holds several records for some structures; these can differ, active in one and inactive in another. Active and inactive are the calls of the source. Unless noted, the call rests on the fitted dose curve.
# Molecular target: Retinoic acid receptor RXR-alpha (Homo sapiens) (UniProt P19793)
# Experiment: qHTS assay for small molecule agonists of retinoid X receptor alpha signaling (AID 588544);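 on activation: 0% = DMSO basal wells and 100% = reference agonist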
# Conditions: HEK293T RXRa-UAS-bla, beta-lactamase reporter, 18 h; activation: at 76.7 µM (top of the series)
# Potency means the concentration at half of the fitted maximal effect; tags describe the fitted curve by direction and shape or compound fluorescence and quenching.
# Sequence of UniProt P19793 (P19793 whole entry, looked up): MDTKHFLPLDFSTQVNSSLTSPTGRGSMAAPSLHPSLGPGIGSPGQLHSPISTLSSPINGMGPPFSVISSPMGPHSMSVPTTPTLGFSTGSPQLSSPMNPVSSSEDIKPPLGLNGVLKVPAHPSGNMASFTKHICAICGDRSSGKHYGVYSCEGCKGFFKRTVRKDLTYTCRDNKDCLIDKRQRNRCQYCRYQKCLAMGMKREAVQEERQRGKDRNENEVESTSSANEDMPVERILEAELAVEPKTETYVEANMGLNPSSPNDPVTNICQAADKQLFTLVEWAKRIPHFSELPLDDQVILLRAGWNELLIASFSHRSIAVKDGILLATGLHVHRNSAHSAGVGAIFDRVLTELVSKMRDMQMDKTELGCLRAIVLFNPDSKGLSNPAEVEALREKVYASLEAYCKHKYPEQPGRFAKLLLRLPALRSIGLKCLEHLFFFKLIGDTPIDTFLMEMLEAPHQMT
Structure (SMILES),Potency,activation
c1ccc2c(c1)-c1cccc3cccc-2c13,"inconclusive: 44.7 µM [fluorescent, partial curve, poor fit] and inconclusive: 39.8 µM [activator, partial curve, poor fit]",
Nc1ccc([N+](=O)[O-])cc1N,,inconclusive: -15.8%
Nc1ccccc1C(=O)OCCc1ccccc1,,inconclusive: -21.3%
Cc1cc(N=Nc2ccccc2C)ccc1N,"inconclusive: 14.1 µM [inhibitor, full curve] and inconclusive: 28.2 µM [inhibitor, partial curve]",
c1ccc(Nc2ccc(Nc3ccccc3)cc2)cc1,,inactive: -15.9%
c1ccc2cc3c(cc2c1)-c1cccc2cccc-3c12,active: 2.82 µM,
O=[N+]([O-])c1cc(C(F)(F)F)cc([N+](=O)[O-])c1Cl,,inactive: 2.21%
Brc1ccc(Oc2ccc(Br)cc2Br)c(Br)c1,,inconclusive: -10.1%
CCOP(=S)(OCC)Oc1ccc([N+](=O)[O-])cc1,,inconclusive: -24.4%

# Molecular target: Thyroid hormone receptor beta (Homo sapiens) (UniProt P10828)
# Experiment: qHTS assay for small molecule agonists of thyroid hormone receptor beta signaling (AID 588545)
# Conditions: TR-UAS-bla GripTite HEK 293, beta-lactamase ratio, agonist mode, 18 h; activation: at 76.7 µM, percent of T3 response, DMSO as zero
# Method in brief: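 Agonist-mode beta-lactamase reporter assay, HEK 293 cells, 2% charcoal/dextran FBS; cells plated 4 hrs, compound 18 hrs at 37 C, CCF4 2 hrs RT. Normalized to 10 nM T3 (100%) and DMSO (0%); Hill fit gives EC50, efficacy.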
# Sequence of UniProt P10828 (P10828 whole entry, looked up): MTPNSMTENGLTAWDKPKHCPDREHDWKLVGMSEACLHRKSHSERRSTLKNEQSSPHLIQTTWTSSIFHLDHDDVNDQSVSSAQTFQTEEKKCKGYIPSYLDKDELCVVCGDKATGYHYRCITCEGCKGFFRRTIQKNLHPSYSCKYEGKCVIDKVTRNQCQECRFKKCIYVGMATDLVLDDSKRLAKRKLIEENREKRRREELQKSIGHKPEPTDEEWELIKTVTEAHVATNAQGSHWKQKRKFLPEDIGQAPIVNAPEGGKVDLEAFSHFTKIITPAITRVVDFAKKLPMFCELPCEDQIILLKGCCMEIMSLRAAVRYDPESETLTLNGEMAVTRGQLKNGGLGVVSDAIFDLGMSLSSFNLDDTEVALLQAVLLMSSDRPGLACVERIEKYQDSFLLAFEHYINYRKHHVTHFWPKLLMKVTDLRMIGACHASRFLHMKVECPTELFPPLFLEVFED
Structure (SMILES),activation,Potency
c1ccc2c(c1)-c1cccc3cccc-2c13,inconclusive: -33.6%,
ClCC1CO1 (stereo not drawn),,"inconclusive: 44.7 µM [side channel, falling, partial curve, poor fit]"
c1ccc2cc3c(cc2c1)-c1cccc2cccc-3c12,,active: 7.94 µM
O=[N+]([O-])c1cc(C(F)(F)F)cc([N+](=O)[O-])c1Cl,inconclusive: -36.1%,
CCOP(=S)(OCC)Oc1ccc([N+](=O)[O-])cc1,inconclusive: -22.6%,"inconclusive: 1.12 µM [side channel, falling, full curve, poor fit]"

# Molecular target: Retinoic acid receptor RXR-alpha (Homo sapiens) (UniProt P19793)
# Experiment: qHTS assay for small molecule antagonists of retinoid X receptor alpha signaling (AID 588546; active means well fitted inhibition curve with a large enough effect in the signal ratio, with a control signal flat, not every such curve was filed as active; inconclusive means small, poorly fitted or top-dose-only effect, or effect the other way, or a change in a side signal; inactive means no such curve, though single readings can be large or run the other way; the % refers to the signal ratio;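 on max response: cells stimulated with 9-cis-retinoic acid as agonist; on the % scale 0 is the no-effect control and ±100 the full control effect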)
# Conditions: HEK293T RXRa-UAS-bla, beta-lactamase ratio, antagonist mode
# Method in brief: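 Beta-lactamase reporter inhibition, read as CCF4 fluorescence ratio (ex 405, em 460/530 nm) after 2 h at RT. HEK293T UAS-bla cells, 2500/well, were stimulated with 9-cis-RA at 500 or 100 nM final alongside test compound for 18 h at 37 C.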
Structure (SMILES),Potency,max response
c1ccc2c(c1)-c1cccc3cccc-2c13,"inconclusive: 50.1 µM [fluorescent, side channel, single point]",
O=C(O)C(Br)CBr (stereo not drawn),,inconclusive: 40.5%
Nc1ccccc1C(=O)OCCc1ccccc1,,inactive: -9.65%
ClC(Cl)(Cl)Cl,,inconclusive: -6.43%
Cc1cc(N=Nc2ccccc2C)ccc1N,,inconclusive: -30%
c1ccc2cc3c(cc2c1)-c1cccc2cccc-3c12,"inconclusive: 4.47 µM [fluorescent, side channel, full curve] and inconclusive: 3.55 µM [activator, full curve]",
Brc1ccc(Oc2ccc(Br)cc2Br)c(Br)c1,,inconclusive: -27.8%
CCOP(=S)(OCC)Oc1ccc([N+](=O)[O-])cc1,,inconclusive: -9.5%

# Molecular target: Thyroid hormone receptor beta (Homo sapiens) (UniProt P10828)
# Experiment: qHTS assay for small molecule antagonists of thyroid hormone receptor beta signaling (AID 588547; active means well fitted inhibition curve with a large enough effect in the signal ratio, with a control signal flat, not every such curve was filed as active; inconclusive means small, poorly fitted or top-dose-only effect, or effect the other way, or a change in a side signal; the % refers to the signal ratio;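 on activity change % (negative = inhibition): cells stimulated with 0.4 nM T3 agonist during compound exposure; on the % scale 0 is the no-effect control and ±100 the full control effect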)
# Conditions: TR-UAS-bla HEK293, beta-lactamase ratio, antagonist mode, 18 h
# Method in brief: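 Inhibition of T3-driven (0.4nM final) beta-lactamase reporter activity was measured over 0.59 nM to 92 uM compound after 18 h at 37 C. The cells were GripTite HEK293 TR-UAS-bla in charcoal/dextran-stripped serum, with CCF4 ratio read-out and IC50 from Hill fits.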
Structure (SMILES),activity change % (negative = inhibition),Potency
c1ccc2c(c1)-c1cccc3cccc-2c13,inconclusive: -10.3%,
c1ccc(Nc2ccc(Nc3ccccc3)cc2)cc1,inconclusive: -16.2%,
c1ccc2cc3c(cc2c1)-c1cccc2cccc-3c12,,"inconclusive: 4.47 µM [activator, full curve] and inconclusive: 3.55 µM [activator, full curve]"
CCOP(=S)(OCC)Oc1ccc([N+](=O)[O-])cc1,inconclusive: -0.971%,

# Tested on: not listed separately
# Experiment: S16 Schwann cell PMP22 intronic element firefly luciferase assay (AID 624032; active means well fitted inhibition curve with a large enough effect; inconclusive means small, poorly fitted or top-dose-only effect; inactive means no such curve, though single readings can be large or run the other way; further: nearly all actives have a fitted effect of over 30% in size;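 on activity change, negative = inhibition: plate controls were DMSO for no effect and PTC124 positive control mean for full effect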)
# Conditions: S16 rat Schwann cells, PMP22 element FLuc, 24 h; series mostly up to 57.5 µM; activity change, negative = inhibition: at the top concentration
# Method in brief: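 Luciferase reporter of PMP22 intronic-element expression in stably transfected S16 rat Schwann cells, read by ONE-Glo luminescence after 24 h compound exposure at 37 C. Activity scaled between DMSO (0%) and positive-control PTC124; concentration-effect curves quality-classified.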
Structure (SMILES),Potency,"activity change, negative = inhibition"
O=C1C=C2C=CC3C[C@@]2(O1)C1CCCCN31 (stereo partly drawn),active: 0.51 µM,
CCCCCCCCCCCCSCCOCCO,"inconclusive: 16.1 µM [inhibitor, full curve, poor fit]",
C[C@@H]1CC[C@H]2[C@@H](C)C(=O)O[C@@H]3OC4(C)CC[C@@H]1C32OO4 (stereo partly drawn),"inconclusive: 20.3 µM [inhibitor, partial curve, poor fit]",
C=C1Nc2ccccc2C(=O)N1c1ccccc1C,,inactive: -1.24%
O=c1[nH]cc(N(CCCl)CCCl)c(=O)[nH]1,"inconclusive: 0.102 µM [inhibitor, full curve, poor fit]",
Cc1ccc2c(c1)[C@@H]1CN(C)CC[C@H]1N2,"inconclusive: 40.5 µM [inhibitor, single point]",

# Tested on: not listed separately
# Experiment: S16 Schwann cell PMP22 intronic element beta-lactamase assay (AID 624044); further: nearly all actives have a fitted effect of over 15% in size;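 on ratio activity, negative = inhibition: 0% = DMSO and -100% = potassium clavulanate positive control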
# Conditions: S16 rat Schwann cells, PMP22 element beta-lactamase FRET, 24 h; ratio activity, negative = inhibition: at 38.3 µM (top of the series) unless noted
# Method in brief: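 Rat S16 Schwann cells with beta-Lac driven by a PMP22 intronic element, compound-treated 24 h at 37 °C. LiveBLAzer FRET B/G read: 460 nm normalized to potassium clavulanate vs DMSO; 535 nm FRET as viability; concentration-effect curves classified.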
Structure (SMILES),Potency,"ratio activity, negative = inhibition"
O=C1C=C2C=CC3C[C@@]2(O1)C1CCCCN31 (stereo partly drawn),"inconclusive: 25.1 µM [falling, single point]",
ClCC1CO1 (stereo not drawn),,inactive: 0.253%
ClC(Cl)(Cl)Cl,,inactive: 8.79%
CCCCCC(O)C1C(=O)OC(C)C(O)\C=C/C=C\C=C/C=C\C=C(\C)C(O)C(O)C(O)CC(O)CC(O)CC(O)CC(O)CC1O (stereo not drawn),,inconclusive: 0.38% [cytotoxic]
C=C1Nc2ccccc2C(=O)N1c1ccccc1C,"inconclusive: 25.1 µM [falling, partial curve, poor fit]",

# Tested on: not listed separately
# Experiment: qHTS assay for small molecule agonists of the antioxidant response element (ARE) signaling pathway (AID 651741; active means well fitted activation curve with a large enough effect in the signal ratio; inconclusive means small, poorly fitted or top-dose-only effect, or effect the other way, or a change in a side signal; the % refers to the signal ratio; on activation: % of control where 0% means no effect)
# Conditions: HepG2 ARE-bla reporter, beta-lactamase FRET ratio, 16 h; activation: at 96 µM (top of the series)
# Method in brief: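 Seeding 2,000 ARE-bla HepG2 cells per well preceded a 5 h incubation at 37 C/5% CO2 and a 16 h compound exposure at 37 C. Beta-lactamase reporter activity was then quantified by fluorescence after 2 h with LiveBLAzer B/G FRET substrate.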
Structure (SMILES),activation,Potency
ClCc1ccccc1,inactive: -0.909%,
c1ccc2c(c1)-c1cccc3cccc-2c13,,inactive and active: 30.6 µM
O=C(O)C(Br)CBr (stereo not drawn),,active: 42.2 µM
N#CC(Br)Br,,active: 42.2 µM
ClCC1CO1 (stereo not drawn),,"inconclusive: 75 µM [activator, partial curve, poor fit]"
O=[N+]([O-])c1ccccc1CCl,,"inconclusive: 47.3 µM [activator, partial curve]"
Nc1ccc([N+](=O)[O-])cc1N,,active: 3.76 µM and active: 2.73 µM
Nc1ccccc1C(=O)OCCc1ccccc1,,"inconclusive: 75 µM [activator, single point]"
ClC(Cl)(Cl)Cl,inconclusive: 7.59%,
Cc1cc(N=Nc2ccccc2C)ccc1N,,active: 1.88 µM and active: 4.86 µM
c1ccc(Nc2ccc(Nc3ccccc3)cc2)cc1,,"inconclusive: 66.8 µM [activator, partial curve]"
O=[N+]([O-])c1cc(C(F)(F)F)cc([N+](=O)[O-])c1Cl,inactive: 9.95%,
Brc1ccc(Oc2ccc(Br)cc2Br)c(Br)c1,,"inconclusive: 75 µM [activator, single point]"
CN(C)c1ccc(N(C)C)cc1,,active: 42.2 µM
CCOP(=S)(OCC)Oc1ccc([N+](=O)[O-])cc1,inconclusive: 7.92%,
